According to PubChem BioAssay AID1508624 (National Center for Advancing Translational Sciences (NCATS), 2021):
Screen size: about 48,000 compounds; about 120 (0.25%) were called active. Inconclusive results (about 4%) are left out. Calls come from the whole dose curve; as a rule, active = well fitted activation curve with a large enough effect; inconclusive = small, poorly fitted or top-dose-only effect, or another doubt; inactive = no such curve, though single readings can be large or run the other way. Some of the results follow.

Assay: Primary qHTS for Identification of Small Molecule Activators of Huntingtin-Antisense Promoter Activity; note: nearly all actives have a fitted effect of over 55% in size
Conditions: HEK293 HTT-AS promoter firefly luciferase reporter, 24 h; series mostly up to 57.5 µM; activity change, positive = activation: at the top concentration
Method in brief: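 Luminescence was read after Dual-Glo reagent and a 10 min room-temperature incubation. Values were normalized to vehicle (0% activity) and zero RLU (-100% activity). Reporter HEK293 cells had been exposed to compounds (up to 57.5 uM final) for 24 h.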

Activity change, positive = activation, inactive:
CC(=O)c1ccc(NC(=O)COc2ccccc2-c2nc(C(C)C)no2)cc1 -7.36%, CCOC(=O)C1CCN(S(=O)(=O)c2cc(-c3cc(C)no3)ccc2OC)CC1 -11.2%, COc1ccc(C)cc1Nc1c2c(nc3ccccc13)CCC2 -44.1%, O=C(COc1ccccc1)Nc1nnc2n1CCS2 -2.79%, Cc1ccc(NC(=O)C(Cc2ccccc2)NS(=O)(=O)c2ccc3c(c2)oc(=O)n3C)cc1C (stereo not given) 0%, CC(C)(C)C(=O)Cn1c(=O)n(CCCCCC(=O)NCc2ccccc2Cl)c(=O)c2sccc21 -29.9%, COc1cc(OC)cc(-c2nc3nc(C)c(CCC(=O)Nc4ccccc4)c(C)n3n2)c1 -8.53%, CC(=O)c1ccc(N2CCN(C(=O)Nc3cn(CC(C)C)c(=O)c4ccccc34)CC2)cc1 -5.83%, CCC(=O)Nc1ccc(C)cc1-c1nc2ccccc2n(CC(=O)c2ccc(C)cc2)c1=O -7.86%, CC(C)(C)OC(=O)N1CCC(c2c(C(=O)NCc3ccco3)cnn2-c2ccc(F)cc2F)CC1 -14.4%, Cc1noc2ncnc(N3CCCC(C(=O)Nc4cc(F)ccc4F)C3)c12 (stereo not given) -23.3%, CCOC(=O)c1c(C)c(C(=O)NCc2ccc(Cl)cc2)c(C)n1C -12%, COc1ccccc1NC(=O)C1=C(C)Nc2nc(-c3ccco3)nn2C1c1cccc(C)c1 (stereo not given) -20.4%, CCc1ccc(-n2c(=O)c3c(C)c(C(=O)N(C)C)sc3n(CC(=O)Nc3cc(Cl)ccc3C)c2=O)cc1 15.3%, CCOC(=O)c1c(-c2ccc(Br)cc2)csc1NC(=O)c1ccc(C(C)(C)C)cc1 -15.7%, Cc1ccc(CNC(=O)c2cc(=O)c3cc(C)c(C)cc3o2)cc1 11.1% [at 11.5 µM, percent change from vehicle, -100% = no light], COc1ccc(CNC(=O)C2CCCN(C(=O)c3cnn(-c4ccc(F)cc4)c3-n3cccc3)C2)cc1 (stereo not given) -30.3%, CC1CCCCN1Cc1c(O)ccc2c(=O)c(-c3ccc(Cl)cc3)coc12 (stereo not given) 25.8%, O=C(NCCS(=O)(=O)N1CCN(c2ccc(F)cc2)CC1)c1ccccc1Br -19.2%, COc1ccc(NC(=O)c2cc(=O)c3cc(C)cc(C)c3o2)cc1 12.1% [at 11.5 µM, percent change from vehicle, -100% = no light], Cc1nc2c(-c3ccccc3)c(C)[nH]n2c(=O)c1Cc1ccc(Br)cc1 -65.5%, CCOc1cccc2sc(NC(=O)c3ccc(S(=O)(=O)N4CCCCC4)cc3)nc12 -31.1%, CC(CNc1nc2ccccc2c2nc(-c3ccccc3)nn12)c1ccccc1 (stereo not given) -7.36%, COc1ccc(NC(=O)c2cc3c(=O)n(C)c4cc(Cl)ccc4c3s2)cc1Cl -10.6%, CC(=O)Nc1cccc(NC(=O)CSc2cn(CC(=O)N3CCCC3)c3ccccc23)c1 -5.16%, CC1CCN(S(=O)(=O)c2ccc3c(ccc(=O)n3CC(=O)NCc3ccccc3)c2)CC1 -20.3%, CCCS(=O)(=O)c1nc(S(=O)(=O)c2ccc(C)cc2)c(NCC(C)C)s1 -19.6%, Cc1ccc(CCNC(=O)c2oc(=O)c3ccccc3c2-c2ccc(C)cc2)cc1 -19.9%, CCc1ccc(NC(=O)Cn2cnc3nc4c(cc3c2=O)CCCC4)cc1 27.9%, CCOC(=O)c1cc2c(=O)n3ccccc3nc2n(CC(C)C)c1=NC(=O)C(C)(C)Oc1ccc(Cl)cc1 -1.76%, Cc1ccc(C(=O)N2CC(=O)Nc3ccc(Br)cc3C2c2ccc(F)cc2)cc1C (stereo not given) -27.1%, Cc1ccc(C)c(N2CCN(C(=O)CCc3c(C)nc4c(c3C)c(=O)n(C)c(=O)n4C)CC2)c1 -8.63%, CCN1CCN(C(=O)Cn2c(-c3cccs3)cc3cc(Cl)ccc32)CC1 -28.1%, COc1ccccc1CNC(=O)C1CCN(c2ncnc3c2nc2n3CCCCC2)CC1 3.81% [at 11.5 µM, percent change from vehicle, -100% = no light], CC(C)CCNC(=O)c1c[nH]c2ccc(S(=O)(=O)Nc3cccc(C(F)(F)F)c3)cc2c1=O -40.1%, COc1ccc(C(CNC(=O)c2oc3ccccc3c2C)N2CCCCC2)cc1 (stereo not given) 1.72%, CCc1ccc(-n2c3nc(=O)[nH]c(=O)c-3cc3c(C)nn(-c4ccccc4)c32)cc1 -8.41%, CCc1c(C)sc2c1CCN(C(=O)Nc1ccccc1Cl)C2c1ccc(OC)cc1 (stereo not given) -6.74%, Cc1cc(-n2c(SCc3ccccc3F)nc3[nH]ncc3c2=O)ccc1Cl -26%, CCCCCCCCCCCCCCCC[N+](C)(C)CC -40.8%, Cc1ccc(-c2noc(-c3ccc(NC4CCCC4)c([N+](=O)[O-])c3)n2)cc1 -4.4%, Cc1cc(Cl)ccc1NC(=O)C1CCCN1S(=O)(=O)c1ccc2c(c1)CCCC(=O)N2 (stereo not given) -34%, CC(C)(C)OC(=O)N1CCC(c2nnc(SCc3ccccc3Cl)o2)CC1 -30.7%, CS(=O)(=O)c1ncc(N(Cc2ccco2)Cc2cccs2)c(C(=O)Nc2ccccc2F)n1 -20%, COc1ccc(Cl)cc1NC(=O)C(C)n1c(=O)cc(C(F)(F)F)c2c(C)nn(C)c21 (stereo not given) -16.1%, Cc1ccc(Cn2ccn(Cc3ccc(C)cc3)c(=O)c2=O)cc1 -4.19%, CC1CCc2onc(C(=O)N3CCN(c4ccc(Cl)cc4)CC3)c2C1 (stereo not given) -15%, COc1ccc(N2C(=O)NC(NS(=O)(=O)c3ccc(NC(C)=O)cc3)(C(F)(F)F)C2=O)cc1 (stereo not given) -8.72% [at 11.5 µM, percent change from vehicle, -100% = no light], CCOc1ccc(CNC(=O)CCCn2nc(C)c3c(C)n(-c4ccc(C)cc4)nc3c2=O)cc1 -10.6%, CCOC(=O)OC(C)OC(=O)[C@@H]1N2C(=O)[C@@H](NC(=O)[C@H](N)c3ccccc3)[C@H]2SC1(C)C (stereo not given in full) 0.213%, Cc1ccc(-n2c(=O)c3oc4ccccc4c3n(Cc3ccccc3)c2=O)cc1C -15.4%, Cc1ccc(-c2noc(-c3nnn(CC(=O)Nc4ccc(C)cc4Cl)c3N)n2)cc1 -10.1%, Cc1cc(C)cc(NS(=O)(=O)c2ccc3[nH]cc(C(=O)N4CCCCC4)c(=O)c3c2)c1 -4.48%, CCOc1ccccc1CNC(=O)c1ccc2c(c1)N(CC)CCS2 -14.6%, COc1cccc(CNC(=O)C(Cc2ccccc2)NS(=O)(=O)c2ccc3c(c2)CCN3C(C)=O)c1 (stereo not given) 10.1%, CCOc1cc2c(cc1OCC)C(CC(=O)OC)N(C(=O)Nc1cc(C)cc(C)c1)CC2 (stereo not given) 6.89%, Cc1ccc(NC(=O)CCc2nc(-c3ccccc3F)no2)c(C)c1 -16.8%, COc1cc(C(=O)Nc2sc3c(c2C#N)CCCC3)c(Br)c(OC)c1OC -33.2%, Cc1cccc(OCC(=O)Nc2nnc(S(=O)(=O)N3CCCCCC3)s2)c1 -17.3%, CS(=O)(=O)c1ncc(Cl)c(C(=O)N(Cc2ccc(Cl)cc2)Cc2ccco2)n1 -94.3%, Cc1ccc(-n2nc(C(=O)NC(C)C)c(=O)n(C)c2=O)cc1 -6.21%, COc1cc(Cl)c(C)cc1NC(=O)c1c(C)oc2nc(C)nc(N3CCCC3)c12 -2.69%, CCc1nnc(NC(=O)CSc2nccn2Cc2ccccc2)s1 -25.2%, O=C(Cn1c(-c2cccs2)cc2ccccc21)NCCCN1CCN(c2cccc(Cl)c2)CC1 -29.3%, O=C1CCCc2cc(S(=O)(=O)N3CCCC(C(=O)NCc4ccccc4Cl)C3)ccc2N1 (stereo not given) -32.6%, COC(=O)Cn1c(=O)c2c(nc3n2CCN3c2cccc(C)c2)n(C)c1=O -4.2%, CCCCc1ccc(NC(=O)c2cc3c(=O)n4ccccc4nc3n2C)cc1 -8.91%, COc1ccc2nc3sc(C(=O)Nc4ccccc4F)cc3cc2c1 23.7%, COc1ccc(NC(=O)CCCc2nc(-c3ccco3)no2)c(OC)c1 -23.4%, CCN(CC)S(=O)(=O)c1ccc(NC(=O)[C@H](CSCc2ccccc2)N2Cc3ccccc3C2=O)cc1 -0.0842%, COc1cccc(OC(=O)CSc2nnc(-c3ccccc3OC)o2)c1 -21.1%, O=c1cc(CN2CCN(S(=O)(=O)c3ccc(Cl)cc3)CC2)nc2sc(-c3ccccc3F)nn12 -12.7%, O=S(=O)(NCCc1ccccc1)c1ccc(N2CCCCS2(=O)=O)cc1 -24.2%, COc1ccc(C(=O)O)cc1Nc1nc2ccc(C)cc2n2cnnc12 -13.8%, NC(=O)CC[C@@H](N)C(=O)O 1.81%, Cc1cccc(NC(=O)c2sc3nc4n(c(=O)c3c2C)N=C(c2ccc(F)cc2)CS4)c1C -8.9%, Cc1ccc(C)c(N2CCN(c3nc4ccccc4c4nc(CCn5nc(C)cc5C)nn34)CC2)c1 13%, CO/N=C(\C(=O)N[C@@H]1C(=O)N2C(C(=O)O)=C(CSc3nc(=O)c(O)nn3C)CS[C@H]12)c1csc(N)n1 2.04%, O=C(CSc1nc(-c2ccc(Cl)cc2)nc2c1Cc1ccccc1O2)N1CCCCC1 19.3%, Cc1ccc(N2C(=O)CS(=O)(=O)C23C(=O)N(Cc2cccc(F)c2)c2ccccc23)cc1Cl (stereo not given) -29.9%, COc1ccc(Cl)cc1NC(=O)c1cc2nc(-c3ccc4c(c3)OCO4)cc(C(F)(F)F)n2n1 -2.5%, COc1cc(C2CC(=O)Nc3c2c(=O)[nH]c2nc4ccccc4n32)ccc1O (stereo not given) -11.1%, CC1(C)C(=O)N(CC(=O)Nc2ccc(Cl)cc2)c2ccccc21 -5.44%, CCC(C)NC(=O)c1cc2c(Cl)nc3ccc(C)cc3c2s1 (stereo not given) -4.71%, CCc1nn2c(=O)cc(COC(=O)c3ccccc3NC(=O)COc3ccccc3C)nc2s1 9.52%, COc1ccc(-c2nn3c(-c4ccc(OC)cc4)nnc3c3ccccc23)cc1 -5.96%, Cc1ccc2c(c1)cc(C(=O)Nc1ccccc1C)n2C -13.1%, O=C(c1ccco1)N(Cc1cccnc1)c1nc2ccc(F)cc2s1 15.7%, CCc1ccc(C2C(C(=O)Nc3ccccc3)=C(C)Nc3c(C(=O)Nc4ccc(C)cc4)cnn32)cc1 (stereo not given) -28.5%, CCc1ccc(S(=O)(=O)c2cn(C)c3cc(N4CCCCC4C)c(F)cc3c2=O)cc1 (stereo not given) -21.3%
